Among all 150,000 compounds or so, about 540 (0.36%) showed an effect of 50% or more. This is one part of the list.
Each molecule was assayed on Plasmodium falciparum (assay: Primary screen in NF54 nanoGlo assay, in single point, at 2uM, 72h; a lower Z score goes with more inhibition). Conditions: timepoint 72 hour.
Format: functional, Erythrocyte
For `Cc1nnc(CCNC(=O)c2ccc(Cl)s2)s1`, the “% Inhibition” value was -26% and the Z score was 2.43.
For `O=C(Cc1ccc(F)cc1)NC1CCN(C(=O)c2cc(-c3ccccc3)n[nH]2)CC1`, the “% Inhibition” value was 8% and the Z score was -0.98.
`C#CCN1C(=O)[C@H](c2c(-c3ccc(Cl)cc3)[nH]c3c2c(=O)[nH]c(=O)n3C)c2ccccc21` was tested, and the “% Inhibition” value was -8% and the Z score was 1.28.
For `N#CC1(NC(=O)CNc2ccccc2Oc2ccccc2)CCCC1`, the “% Inhibition” value was 2% and the Z score was -0.43.
For `Cc1ccc(NC(=O)c2ncn(C[C@H](O)c3ccc(F)cc3)n2)cc1`, the “% Inhibition” value was -7% and the Z score was 0.83.
In the case of `Cc1ccnc(-c2n[nH]c(C(C)NC(=O)C3CCC(F)(F)C3)n2)c1` (stereo not drawn), the “% Inhibition” value is reported as -6% and the Z score is reported as 1.1.
With `CC(C)[C@H](C)NC(=O)CCn1cncn1` the “% Inhibition” value was 4% and the Z score was -0.44.
`Cc1nc(CCNS(=O)(=O)c2cc(Cl)cnc2N)cs1` was tested, and the “% Inhibition” value was 3% and the Z score was -0.4.
With `CN1CCN(CC(=O)Nc2ccc(Cc3cccc(C(N)=O)c3)nc2)CC1` the “% Inhibition” value was -3% and the Z score was 0.56.
`Cc1cnc(N2CCC3(CC2)[C@@H](C(=O)O)CC(=O)N3C)nc1N(C)C` was tested, and the “% Inhibition” value was 18% and the Z score was -2.35.
`CC(C)(C)c1nnnn1CCO[C@@H]1CCCCO1` was tested, and the “% Inhibition” value was -10% and the Z score was 1.87.
With `Cc1ccc(-c2nc(CNC(=O)Cc3ccc(O)cc3)[nH]c2-c2ccccn2)cc1` the “% Inhibition” value was -16% and the Z score was 2.25.
In the case of `CN1CC(=O)N2CCN(Cc3ccc(Cl)o3)C[C@H]2C1=O`, the “% Inhibition” value is reported as -4% and the Z score is reported as 0.86.
For `COc1ccc(-c2cc3n(n2)CCC(=O)N3CC(=O)NCc2ccc(C)cc2)cc1`, the “% Inhibition” value was -3% and the Z score was 0.32.
In the case of `O=C(Nc1cn[nH]c1)[C@@H]1COc2ccccc2O1`, the “% Inhibition” value is reported as 3% and the Z score is reported as -0.47.
In the case of `Cc1ccc(N(C)S(=O)(=O)CC[C@H]2CCCO2)c(C)c1`, the “% Inhibition” value is reported as 4% and the Z score is reported as -0.42.
For `CCN1CC[C@H](NC(=O)N2CCC(O)(Cc3ccccc3F)CC2)C1=O`, the “% Inhibition” value was -21% and the Z score was 2.16.
For `COCCOCC(=O)NC[C@@]12CCCC=C1N(C)C(=O)CC2`, the “% Inhibition” value was -4% and the Z score was 0.6.
`Cc1nc(CNC(=O)COc2ccccc2Cl)cs1` was tested, and the “% Inhibition” value was 12% and the Z score was -1.35.
In the case of `Cn1nc2c(c1CNc1nnc(C(C)(C)C)s1)CCC2`, the “% Inhibition” value is reported as -7% and the Z score is reported as 1.22.
For `Cc1cc(C(=O)N2CCCCC2)c2c(-c3ccccc3F)noc2n1`, the “% Inhibition” value was 29% and the Z score was -3.24.
For `CC(C)(C)[C@H](COc1ccccc1F)NC1CCN(C(N)=O)CC1`, the “% Inhibition” value was 6% and the Z score was -0.68.
For `O=C(C1CC2C=CC1C2)N1CCCc2ccccc21` (stereo not drawn), the “% Inhibition” value was -6% and the Z score was 0.89.
With `CC(C)(C)C(O)CC(CO)Nc1cnccn1` (stereo not drawn) the “% Inhibition” value was 14% and the Z score was -1.77.
For `CCc1nc(C)c([C@H]2CN(C)C[C@@H]2C(=O)N(C)Cc2sccc2C)[nH]1`, the “% Inhibition” value was -13% and the Z score was 1.22.
`COc1ccccc1NC(=O)N(C1=NCCCCC1)c1cccc(C)c1` was tested, and the “% Inhibition” value was 9% and the Z score was -1.25.
`CCC(C)NC(=O)C(NC(=O)c1ccc(OC)cc1)C1CCN(C(=O)Nc2cccc(Cl)c2)CC1` (stereo not drawn) was tested, and the “% Inhibition” value was -1% and the Z score was 0.2.
With `CCN(c1ccccc1)S(=O)(=O)c1cc2c3c(c1)CCC(=O)N3CCC2` the “% Inhibition” value was -12% and the Z score was 2.38.
In the case of `CCS(=O)(=O)Nc1nn(C(C)(C)C)cc1C#N`, the “% Inhibition” value is reported as 6% and the Z score is reported as -1.17.
For `O=C(Nc1ccccc1)c1cccc(NS(=O)(=O)c2ccc3c(c2)OCCCO3)c1`, the “% Inhibition” value was 21% and the Z score was -2.43.
`COc1ccc(OC)c2sc(N3CCc4ccccc4C3)nc12` was tested, and the “% Inhibition” value was 1% and the Z score was -0.09.
For `CCOC(=O)c1c(S(=O)(=O)N2CCC[C@H](C(=O)Nc3ccccc3OC)C2)c(C)n(C)c1C`, the “% Inhibition” value was -11% and the Z score was 1.75.
In the case of `CCc1ccc(-n2nc(CO)c(C(=O)NCc3ccccn3)n2)cc1`, the “% Inhibition” value is reported as -7% and the Z score is reported as 1.08.
In the case of `CCCOCC(=O)NC1(CN2CCCCC2)CCCCC1`, the “% Inhibition” value is reported as -3% and the Z score is reported as 0.57.
For `CC(C)(C)OC(=O)NC1CCCCCC1C(=O)NCc1cccnc1` (stereo not drawn), the “% Inhibition” value was 0% and the Z score was 0.07.
With `CC#CCN1CCN(CC#CC)[C@H](C(=O)N(C)C)C1` the “% Inhibition” value was -16% and the Z score was 2.65.
`COc1ccc(-c2noc(CN3C[C@H]4CC[C@H]3C4)n2)cc1` was tested, and the “% Inhibition” value was -10% and the Z score was 0.93.
For `Cc1ccc(CN2CCc3oc(C)c(C(=O)NCCN4CCOCC4)c3C2)cc1`, the “% Inhibition” value was -5% and the Z score was 0.52.
In the case of `Cc1nn(C)cc1C1=NO[C@H]2C(=O)N(c3ccc(F)c(Cl)c3)C(=O)[C@@H]12`, the “% Inhibition” value is reported as -1% and the Z score is reported as 0.11.
With `COc1ccccc1Cc1nc2c(c(N3CCOCC3)n1)CN(C(=O)Nc1cccc(Cl)c1Cl)CC2` the “% Inhibition” value was 0% and the Z score was 0.06.
In the case of `CCO[C@H]1CN(C(=O)c2c(C)noc2C)C[C@@H]1O`, the “% Inhibition” value is reported as -19% and the Z score is reported as 1.9.
In the case of `Cc1ccccc1NC(=O)Nc1cccc(-c2cc3ccccc3[nH]2)c1`, the “% Inhibition” value is reported as 23% and the Z score is reported as -2.68.
`CCCNC(=O)CNC(=O)c1csc(NC(C)=O)n1` was tested, and the “% Inhibition” value was -4% and the Z score was 0.67.
`CC(C)[C@H](C)N(C)S(=O)(=O)c1c(Cl)cc(Br)cc1Cl` was tested, and the “% Inhibition” value was -4% and the Z score was 0.43.
For `CN(CC(=O)N[C@H]1CCCc2ccccc21)S(=O)(=O)c1c[nH]c(C(=O)N2CCCC2)c1`, the “% Inhibition” value was -12% and the Z score was 1.19.
For `CCN(CC)[C@H]1CCN(C(=O)c2cnn(-c3nccc(-c4ccccc4OC)n3)c2C)C1`, the “% Inhibition” value was -12% and the Z score was 1.86.
With `Cc1nc(NCc2ccc(F)cc2)sc1-c1ccn(CCN2CCOCC2)n1` the “% Inhibition” value was -1% and the Z score was 0.11.
`CCn1cc(CCN2CCN(C(=O)c3ccco3)CC2)c2cccnc21` was tested, and the “% Inhibition” value was 6% and the Z score was -0.98.
`Cc1n[nH]c(C)c1CCC(=O)Nc1ccc2c(c1)C(=O)N1CCC[C@H]1C(=O)N2` was tested, and the “% Inhibition” value was 0% and the Z score was -0.01.
With `Cc1c[nH]c(CN(C)[C@@H](C(=O)O)c2ccc(NC(=O)N3CCCC3)cc2)n1` the “% Inhibition” value was -6% and the Z score was 0.91.
In the case of `Cc1cc(C)n2ncc(CN(C)Cc3ccncc3C)c2n1`, the “% Inhibition” value is reported as -3% and the Z score is reported as 0.51.
For `CCc1cc(O)nc(CN2CCC[C@H](Cc3nc(C)no3)C2)n1`, the “% Inhibition” value was -10% and the Z score was 1.4.
With `CC(c1ccccc1)C(C)(O)C(=O)NCCC1CCCCO1` (stereo not drawn) the “% Inhibition” value was -4% and the Z score was 0.32.
`Cc1cccc(C(=O)NC2CCN3CCCC3C2)c1O` (stereo not drawn) was tested, and the “% Inhibition” value was -4% and the Z score was 0.41.
`CCn1nc(C)c(C(=O)Nc2cccc(-c3ccc4ccccc4c3)n2)c1Cl` was tested, and the “% Inhibition” value was -9% and the Z score was 1.14.
`CN(Cc1ccco1)C(=O)NC[C@H]1COc2ccccc2O1` was tested, and the “% Inhibition” value was -25% and the Z score was 2.9.
For `COC(=O)c1ccc(N(C)[C@@H](C)c2ccccn2)nn1`, the “% Inhibition” value was 11% and the Z score was -1.21.
`O=C(NC1c2ccccc2CCC1CO)c1cscn1` (stereo not drawn) was tested, and the “% Inhibition” value was -12% and the Z score was 1.64.
For `O=C1C[C@@H](c2cccc(OC(F)F)c2)c2c(ccc3nsnc23)N1`, the “% Inhibition” value was -5% and the Z score was 0.59.
`C[C@@H]1CN(C(=O)N[C@H]2CC[C@H](c3nccc(O)n3)CC2)C[C@H](C)O1` was tested, and the “% Inhibition” value was -5% and the Z score was 0.95.
For `CCn1nc(C)c2ccnc(N3CCC(C(=O)N4CCN(c5cccc(OC)c5)CC4)CC3)c21`, the “% Inhibition” value was -13% and the Z score was 2.13.
With `Cc1nnc(N2CCN(c3ccccc3F)CC2)c2c1nnn2Cc1ccc(F)cc1` the “% Inhibition” value was -14% and the Z score was 1.6.
In the case of `CCc1nc(Cn2ccc(=O)n(C)c2=O)cs1`, the “% Inhibition” value is reported as -13% and the Z score is reported as 2.49.
For `CC1CN(S(=O)(=O)Nc2cccc3c2OCCO3)C(C)CO1` (stereo not drawn), the “% Inhibition” value was -9% and the Z score was 1.28.
For `C=CCN(Cc1csc(COc2ccc(C)c(C)c2)n1)S(=O)(=O)c1ccc(OC)cc1`, the “% Inhibition” value was 1% and the Z score was -0.1.
With `CCn1c(C)ccc(C(=O)NC2(c3cc(F)ccc3F)CC2)c1=O` the “% Inhibition” value was -3% and the Z score was 0.4.
With `CC(C)[C@H](Cn1cncn1)NC(=O)c1ccccc1Br` the “% Inhibition” value was 5% and the Z score was -0.68.
For `COc1ccccc1Oc1ccc(S(=O)(=O)N2CCCCC2)cc1NCC(=O)N1CCNC1=O`, the “% Inhibition” value was -10% and the Z score was 1.58.
For `CCN(CC)c1ccc(N2C(=O)c3c(Br)c(Br)c(Br)c(Br)c3C2=O)cc1`, the “% Inhibition” value was 35% and the Z score was -4.45.
In the case of `CC(=O)Nc1ccc(C(=O)N2CCO[C@H](C3CCC3)C2)nc1`, the “% Inhibition” value is reported as 0% and the Z score is reported as 0.08.
`Cn1cnnc1[C@H]1CCCN(S(=O)(=O)N2CCCCC2)C1` was tested, and the “% Inhibition” value was -6% and the Z score was 0.88.
With `O=C(CC[C@@H]1NC(=O)c2ccccc2NC1=O)Nc1ccc(F)cc1` the “% Inhibition” value was -8% and the Z score was 1.03.
In the case of `CN(C)CCN(C(=O)CCc1ccncc1)C1CCCC1`, the “% Inhibition” value is reported as 2% and the Z score is reported as -0.35.
For `Cc1nn(C)c(C)c1-c1ccnc(N(C)Cc2nc(-c3ccccn3)no2)n1`, the “% Inhibition” value was -20% and the Z score was 2.71.
`COCCn1cc(NC(=O)N(CC2CCCCC2)C2CC2)cn1` was tested, and the “% Inhibition” value was 1% and the Z score was -0.14.
For `CC(C(C)S(C)(=O)=O)N(C)C(=O)NCc1cccnc1` (stereo not drawn), the “% Inhibition” value was -5% and the Z score was 0.39.
In the case of `Cc1nc(O)c(Cl)c(NCCN2CCC(CO)CC2)n1`, the “% Inhibition” value is reported as -6% and the Z score is reported as 0.83.
`COCCC[C@H]1CCCCN1C1CCN(C2CCCC2)CC1` was tested, and the “% Inhibition” value was 4% and the Z score was -0.47.
For `O=C(CC1CC1)N1CCC[C@@H]1CCc1noc(-c2cccnc2)n1`, the “% Inhibition” value was -10% and the Z score was 1.92.
`O=C(COc1ccc(-c2ccccc2)cc1)NCCC1=CCCCC1` was tested, and the “% Inhibition” value was 9% and the Z score was -1.3.
`Cc1nc(N)sc1CC(=O)NC1(CO)CCCCCC1` was tested, and the “% Inhibition” value was 1% and the Z score was -0.13.
`O=C(COc1ccc(Cl)cc1Cl)NOCc1ccccc1` was tested, and the “% Inhibition” value was -18% and the Z score was 3.33.
For `CCCOC(=O)N[C@@H](CC)COC(=O)Nc1cc(C)ccc1C`, the “% Inhibition” value was -2% and the Z score was 0.3.
In the case of `COc1cc(CN2CCC[C@H](N(C)CCc3ccccc3)C2)ccc1O`, the “% Inhibition” value is reported as 6% and the Z score is reported as -0.81.

Source: ChEMBL document CHEMBL4888484, “Replenishing the malaria drug discovery pipeline: Screening and hit evaluation of the MMV Hit Generation Library 1 (HGL1) against asexual blood stage Plasmodium falciparum ,using a nano luciferase reporter read-out” (2022)
